The source of these data is patent US20250235531A1, “MUCOSAL ADMI[…] AND FORMULATIONS” (priority 2022, published 2025).

For this test, the system named is HeLa cells. Briefly: Luciferase protein expression assay in HeLa cells (ONE-Glo). The settings on record: LNPs encapsulating Luciferase mRNA 25 ng per well, N=4, 5 h transfection, read after 24 h. As to the method:
Lipid nanoparticle compositions were prepared in a manner analogous to that in Example 27. To evaluate LNP cellular uptake and protein expression in vitro, HeLa cells from ATCC.org (ATCC CCL-2) are used. The cells are cultured in complete Minimum Essential Medium (MEM) and are plated in 96 well Cell Carrier Ultra plate with PDL coated surface (PerkinElmer) prior to running an experiment.
Cells were transfected with buffer control (PBS) or LNPs encapsulating Luciferase mRNA (25 ng per well; N=4 replicate wells) in serum-free MEM media. LNP transfected cells were incubated for 5 h, followed by media removal and supplementation with complete MEM media. Cells were further incubated in complete MEM media overnight (24 h). Following the 24 hr incubation, luciferase protein expression was measured using the ONE-Glo™ Luciferase Assay (Promega). Cells were lysed using 1× Passive Lysis Buffer (Cat. #E194A) for 10 min in a microplate mixer at room temperature. Luciferase in the supernatant was measured by adding Luciferase Assay Reagent (Cat. #E151A) containing luciferin. Bioluminescence was then immediately measured on a Synergy H1 plate reader (BioTek). The results shown in Table 27 show the Average Relative Light Units (RLU) of each sample tested.

The structures appear in SMILES notation.

As to `CC[C@H](CC[C@@H](C)[C@H]1CC[C@H]2[C@@H]3CC=C4C[C@@H](OC(=O)N(CC56CC(N)(C5)C6)CC56CC(N)(C5)C6)CC[C@]4(C)[C@H]3CC[C@]12C)C(C)C.Cl.Cl` [SA189, (3S,8S,9S,10R,13R,14S,17R)-17-((2R,5R)-5-ethyl-6-methylheptan-2-yl)-10,13-dimethyl-2,3,4,7,8,9,10,11,12,13,14,15,16,17-tetradecahydro-1H-cyclopenta[a]phenanthren-3-yl bis((3-aminobicyclo[1.1.1]pentan-1-yl)methyl)carbamate dihydrochloride], the “Average Relative Light Units ± Standard Deviation” value is listed as 386 ± 44.3 Relative Light Units.
With `CC[C@H](CC[C@@H](C)[C@H]1CC[C@H]2[C@@H]3CC=C4C[C@@H](SSCCC(=O)N(CCC5CC(N)C5)CCC5CC(N)C5)CC[C@]4(C)[C@H]3CC[C@]12C)C(C)C.Cl.Cl` (stereo partly drawn) [SA187, N,N-bis(2-(3-aminocyclobutyl)ethyl)-3-(((3S,8S,9S,10R,13R,14S,17R)-17-((2R,5R)-5-ethyl-6-methylheptan-2-yl)-10,13-dimethyl-2,3,4,7,8,9,10,11,12,13,14,15,16,17-tetradecahydro-1H-cyclopenta[a]phenanthren-3-yl)disulfaneyl)propanamide dihydrochloride] the figure was 23953.8 ± 3430 Relative Light Units; with `CC[C@H](CC[C@@H](C)[C@H]1CC[C@H]2[C@@H]3CC=C4C[C@@H](OC(=O)N(CCCCNCCC(C)N)CCC(C)N)CC[C@]4(C)[C@H]3CC[C@]12C)C(C)C.Cl.Cl.Cl` (stereo partly drawn) [SA111, (3S,8S,9S,10R,13R,14S,17R)-17-((2R,5R)-5-ethyl-6-methylheptan-2-yl)-10,13-dimethyl-2,3,4,7,8,9,10,11,12,13,14,15,16,17-tetradecahydro-1H-cyclopenta[a]phenanthren-3-yl (3-aminobutyl)(4-((3-aminobutyl)amino)butyl)carbamate trihydrochloride], 26647.6 ± 9522.1 Relative Light Units.
With `CC(C)CCC[C@@H](C)[C@H]1CC[C@H]2[C@@H]3CC=C4C[C@@H](OC(=O)CCCC(=O)N(CCC5CC(N)C5)CCC5CC(N)C5)CC[C@]4(C)[C@H]3CC[C@]12C.Cl.Cl` (stereo partly drawn) [SA188, (3S,8S,9S,10R,13R,14S,17R)-10,13-dimethyl-17-((R)-6-methylheptan-2-yl)-2,3,4,7,8,9,10,11,12,13,14,15,16,17-tetradecahydro-1H-cyclopenta[a]phenanthren-3-yl 5-(bis(2-(3-aminocyclobutyl)ethyl)amino)-5-oxopentanoate dihydrochloride] the figure was 19740.5 ± 4837 Relative Light Units; with `CC[C@H](CC[C@@H](C)[C@H]1CC[C@H]2[C@@H]3CC=C4C[C@@H](OC(=O)N(CCC5CC(N)C5)CCC5CC(N)C5)CC[C@]4(C)[C@H]3CC[C@]12C)C(C)C.Cl.Cl` (stereo partly drawn) [SA186, (3S,8S,9S,10R,13R,14S,17R)-17-((2R,5R)-5-ethyl-6-methylheptan-2-yl)-10,13-dimethyl-2,3,4,7,8,9,10,11,12,13,14,15,16,17-tetradecahydro-1H-cyclopenta[a]phenanthren-3-yl bis(2-(3-aminocyclobutyl)ethyl)carbamate dihydrochloride], 39332.2 ± 8317.2 Relative Light Units.
